First the molecules themselves.
B1: LINE1-mini (parent)
chain: GGCAGAGCUCAACACAGCGUGGCAAAGUGGCUGUGGCUAGACUGCC

Read counts are not given, so values of variants with three or more changes are uncertain.

The variants in this data set derive from B1. Briefly: self-cleavage, relative activity (ratio to wild type); higher = more cleavage; in vitro, sequencing; the parent is a self-cleaving ribozyme.
With U34C G35U C45G, the self-cleavage is 0.04.
As to G30U C31G U34A A39C A41G C45A, the self-cleavage was found to be 0.01.
As for G29C G40U U43G C45U, the self-cleavage was found to be 0.03.
The result for G33C C37A C42U reads 0.01; that for G29U G30U G40A, 0.28; that for G30U C37G U43C, 0.11.
For G29A G33U C45A, the self-cleavage was 0.02.
The value for G33U U34C C42G was 0.03.
The value for C31U U32G C45A C46G was 0.03; that for U32C G36U U43C was 0.05; that for G30U U34C G40A was 0.03.
The result for C31A U34A C45G reads 0.03.
G30C G35A A39U C46G: the self-cleavage came out at 0.06.
In the case of G29C G33A G40A, the self-cleavage was determined as 0.06.
The result for G29U C31A C45U reads 0.19; that for G30U C31G G36U C42U, 0.02.
G29A G36U C37G U43A: the self-cleavage was found to be 0.01.
The value for U32A G35U C37U was 0.22; that for G30U G33A U43A was 0.02.
Consider C42A G44A C46A, for which the self-cleavage is 0.04.
The result for G33C A39C G40A reads 0.03.
The value for G29C C37U A39U was 0; that for G30A G36U A41C was 0.02.
The value for G33U U38A A39U was 0.07; that for C37U C42U C45U was 0.02.
For G30A G35A G40U, the self-cleavage was determined as 0.09.
The value for G33A G35U G44C C45G was 0.02.
The value for G36C G40U U43G was 0.1; that for G30U A39G U43G was 0.49; that for C31G U43G C45G was 0.04.
The result for U32C G35U C37U C42A reads 0.05; that for G33C G35U C37U, 0.12; that for G36C U38C A39C C42G, 0.04.
Take G30A G35A C46A: the self-cleavage worked out at 0.07.
For U32G G40U U43A, the self-cleavage was determined as 0.05.
The value for G29C C31G U32G was 0.06; that for C31G C37A G44U was 0.08.
For the variant C31G G36A C46A, the self-cleavage is 0.03.
For the variant U34G G40C C42G C46A, the self-cleavage amounted to 0.05.
The value for G40A C42U C46U was 0.08.
The value for C31U G36U A41U C45A was 0.4; that for G33U G40C C45A was 0.07.
The value for G29U G30A G40U was 0.08; that for G30A C31A U32G C37U was 0.02; that for U34G C42U U43G was 0.01.
Take G36U C45A C46U: the self-cleavage is 0.06.
The value for G29U G40C C42U was 0.07; that for G29U G30U G33U was 0.03.
Take G30C C37G G44A: the self-cleavage was 0.14.
The value for G33U U34G C42U C46A was 0.03; that for G40C C42U C45G was 0.05.
In the case of G30C C31U U38A C45A, the self-cleavage worked out at 0.3.
With U32A G36A A39C, the self-cleavage was determined as 0.19.
In the case of U32G G35A C37U U38G A39C, the self-cleavage was found to be 0.02.
U34G G36A G44U: the self-cleavage worked out at 0.01.
The result for G29A A41C G44C reads 0.05; that for U32A A39G C45U, 0.15; that for G35U U43G G44U, 0.15.
The result for G29C C31U U38G reads 0.01; that for C31U A39G A41U, 0.05.
The result for C42U C45A C46U reads 0.12; that for G33C U38C C42U, 0.03; that for C31A A39C C46A, 0.01.
For G30U C37A C46G, the self-cleavage was 0.02.
The result for C31G U32A C42G reads 0.01; that for G33U G36C C37G U38C, 0.04.
As to G29C C31G G36C G40A, the self-cleavage came out at 0.11.
The value for C37U A39U G40U was 0.34; that for A41U C42U C45G C46A was 0.02.
The result for C31G G36C G40A reads 0.37; that for U32C G33C C46G, 0.02.
The value for U34A C37A U38A was 0.06; that for G29C C37G C45G was 0.01.
Turning to C31U U38A C42A C45U, the self-cleavage was 0.02.
With C31G C37G C45G, the self-cleavage worked out at 0.04.
For the variant C31A G40A A41U C45U, the self-cleavage stood at 0.02.
The result for U34G G36A C37U reads 0.1.
On to A39C G40U C46A, for which the self-cleavage came out at 0.13.
The result for A41G C42A C46U reads 0.04; that for U32C U34G C37A, 0.02.
With C31A U34G G35C U38C, the self-cleavage turned out to be 0.06.
The value for G30A G40U C42U was 0.2.
The value for C31A U32C C45G was 0.02; that for G36U U38G C45A was 0.02; that for U32A G33C A41C was 0.03.
The value for U32A U43C G44C was 0.04.
Consider U32C G40A A41C C46A, for which the self-cleavage turned out to be 0.05.
As for G33C U38C G44U, the self-cleavage amounted to 0.02.
Regarding G29U G35A C37A, the self-cleavage was 2.14.
The value for G29A G35C C45A was 0.03.
The result for U34A G36A G40A reads 0.06.
The value for G35U C37A U38C was 0.04; that for G35C U38A A41G was 0.04; that for G30C A41C C46U was 0.02.
Regarding G33A G35U G36A C37A, the self-cleavage was found to be 0.05.
Take G30A G33A G44U C46U: the self-cleavage was 0.19.
The value for U32A G35A C42A was 0.05; that for G30A U38A G40U C42U was 0.03; that for G33C G36U G44U was 0.09.
The result for C31G G35U G40A C46U reads 0.03; that for G30A C31G G35A C46U, 0.03; that for A39U C42A G44C, 0.04.
The value for U38A G40U C42A was 0.09; that for G30U G40U C42U was 0.03; that for G29U G30A C42G was 0.06.
Regarding A39C G40U A41C, the self-cleavage came out at 0.02.
With G29C G33U C37U A41G, the self-cleavage stood at 0.13.
Consider G29U U34A G35A U38C C45A, for which the self-cleavage is 0.
The value for G29C G30C C37U A39C was 0.01.
For G29U G33A G40U, the self-cleavage came to 0.05.
The value for C31A G33U C37U was 0.08; that for A39U G40C G44C was 0.06; that for C31U C37A G44A C46A was 0.05.
The result for G29A A39G C42U U43G reads 0.04.
The result for C31G U34C G35C reads 0; that for G36A A41C C42A, 0.1.
With G30A G36U C42U, the self-cleavage was determined as 0.1.
The value for G35U C37A C45U was 0.07; that for U32C U34G G35A was 0.06; that for C31A U32G U34A was 0.04.
The value for G29A C37G C45G C46A was 0.04.
For C31A A39U C42U, the self-cleavage was determined as 0.02.
G36U U43C C46A: the self-cleavage was 0.02.
The result for G35U U38A U43A reads 0.15; that for C31G G35U U38A, 0.01; that for C31A U34A C37A, 0.01.
The result for G30U C31U U38G C46A reads 0.01; that for G35U G36A A39U, 0.07; that for C31G A39U C42U U43C, 0.07.
The result for G33A A41C G44U reads 0.05; that for G30C U34C G44U, 0.08.
As to A41C U43G C45A, the self-cleavage stood at 0.03.
With C31U U32G A39U G40C C42A, the self-cleavage was found to be 0.03.
The value for U34A A39G G44U was 0.03.
The result for C31U G40C G44C reads 0.02.
The result for U34A A41C U43A G44U reads 0.02.
With G29C U34A C46A, the self-cleavage was found to be 0.04.
